Cytotoxicity call and growth inhibition call data for 29 compounds are collected here from the antibiotic and cytotoxicity screens of Wong et al. (2023).

Some of the results follow.

In one test the test system is HSkMC. Description: cytotoxicity call (relative viability < 0.9). The settings on record: 10 µM.
A further test has as its system HepG2. As to the kind of experiment: cytotoxicity call (relative viability < 0.9). The settings on record: 10 µM.
A further test has as its system S. aureus RN4220. Description: growth inhibition call (relative growth <= 0.2). The conditions noted are these: 50 µM.

Turning to `COCC(=O)Nc1ccc2c(c1)C(=O)N(C)[C@H]1CC[C@@H](CC(=O)NC3Cc4ccccc4C3)O[C@H]1CO2`, the cytotoxicity call in the test with HSkMC and in the test on HepG2 was “inactive” in each case. The growth inhibition call with S. aureus RN4220 was “inactive”.

Take `C[C@H](CO)N1C[C@H](C)[C@@H](CN(C)CC2CCOCC2)Oc2ncc(C#Cc3ccc(F)cc3)cc2C1=O`: the cytotoxicity call with HSkMC and in the test with HepG2 was “inactive” throughout. For the same compound, the growth inhibition call in the test with S. aureus RN4220 is “inactive”.

As for `CCN(CC)C(=O)c1ccc[n+](CC(N)=O)c1`, the cytotoxicity call in the test with HSkMC and with HepG2 was “inactive” in each case. Moreover, the growth inhibition call in the test with S. aureus RN4220 is “inactive”.

With `C[C@@H]1CCCCO[C@@H](CN(C)CC2CC2)[C@H](C)CN([C@H](C)CO)C(=O)c2cc(NC(=O)Nc3ccc(C(F)(F)F)cc3)ccc2O1`, the cytotoxicity call with HSkMC and in the test on HepG2 was “inactive” throughout. Moreover, the growth inhibition call in the test with S. aureus RN4220 was “inactive”.

For the compound `NC(=O)c1c(F)c(F)c(N)c(F)c1F`, the cytotoxicity call in the test with HSkMC and with HepG2 was “inactive” in each case. The growth inhibition call with S. aureus RN4220 was “inactive”.

As for `CCCn1cnnc1CNC`, the cytotoxicity call in the test with HSkMC and in the test on HepG2 was “inactive” in each case. The growth inhibition call with S. aureus RN4220 is “inactive”.

For `Cn1cnc(S(=O)(=O)N[C@H]2C=C[C@H](CC(=O)Nc3ccccc3)O[C@@H]2CO)c1`, the cytotoxicity call with HSkMC and in the test with HepG2 was “inactive” throughout. The growth inhibition call in the test on S. aureus RN4220 is “inactive”.

In the case of `Cc1ccc(S(=O)(=O)Nc2ccc3c(c2)C(=O)N([C@@H](C)CO)C[C@@H](C)[C@H](CN(C)C(=O)Nc2c(C)noc2C)OCCCC[C@@H](C)O3)cc1`, the cytotoxicity call in the test with HSkMC and in the test on HepG2 was “inactive” in each case. Further, the growth inhibition call with S. aureus RN4220 was “inactive”.

Regarding `COc1ccccc1C#Cc1cnc2c(c1)C(=O)N([C@H](C)CO)C[C@@H](C)[C@@H](CN(C)C(=O)c1ccc3c(c1)OCO3)O2`, the cytotoxicity call in the test on HSkMC and in the test with HepG2 was “inactive” each time. Also, the growth inhibition call with S. aureus RN4220 is “inactive”.

On to `Cc1ccc(S(=O)(=O)Nc2ccc3c(c2)C(=O)N([C@H](C)CO)C[C@H](C)[C@@H](CN(C)C(=O)Nc2ccc(F)cc2)OCCCC[C@H](C)O3)cc1`, for which the cytotoxicity call in the test on HSkMC was “inactive”. Moreover, the cytotoxicity call with HepG2 was “active”. Further, the growth inhibition call with S. aureus RN4220 is “inactive”.

As for `C[C@H](CO)N1C[C@H](C)[C@@H](CN(C)Cc2ccc(Cl)c(Cl)c2)OCc2ccccc2-c2c(n(C)c3ccccc23)C1=O`, the cytotoxicity call in the test with HSkMC and with HepG2 was “inactive” in each case. In the test on S. aureus RN4220, the growth inhibition call was “inactive”.

On to `COc1ccc(S(=O)(=O)Nc2cccc3c2O[C@H](CN(C)S(=O)(=O)c2ccc(OC)cc2)[C@@H](C)CN([C@H](C)CO)C3=O)cc1`, for which the cytotoxicity call in the test on HSkMC and with HepG2 was “inactive” in each case. The growth inhibition call with S. aureus RN4220 was “inactive”.

Regarding `COc1ccc(C(N)=S)cn1`, the cytotoxicity call in the test with HSkMC and in the test with HepG2 was “inactive” in each case. Besides, the growth inhibition call in the test with S. aureus RN4220 was “inactive”.

As to `C[C@@H]1CN([C@@H](C)CO)C(=O)c2cc(NS(=O)(=O)c3ccc(Cl)cc3)ccc2O[C@H]1CN(C)Cc1ccc(Oc2ccccc2)cc1`, the cytotoxicity call in the test with HSkMC and in the test with HepG2 was “inactive” throughout. Moreover, the growth inhibition call in the test on S. aureus RN4220 is “inactive”.

Consider `Cc1nc(C2C(=N)N([C@H]3CS(=O)(=O)C[C@@H]3O)CC2=O)sc1C` (some centres not stated), for which the cytotoxicity call in the test with HSkMC and with HepG2 was “inactive” each time. For the same compound, the growth inhibition call in the test with S. aureus RN4220 is “inactive”.

For the compound `Cc1noc(C)c1S(=O)(=O)Nc1ccc2c(c1)CC(=O)N([C@@H](C)CO)C[C@@H](C)[C@H](CN(C)S(=O)(=O)c1ccc(F)cc1)O2`, the cytotoxicity call with HSkMC and in the test on HepG2 was “inactive” each time. Further, the growth inhibition call in the test with S. aureus RN4220 is “inactive”.

Turning to `C[C@H](CO)N1C[C@H](C)[C@H](CN(C)CC2CCCCC2)Oc2c(NC(=O)Nc3ccccc3)cccc2C1=O`, the cytotoxicity call in the test with HSkMC and with HepG2 was “inactive” in each case. Further, the growth inhibition call in the test with S. aureus RN4220 is “inactive”.

Regarding `C[C@H](CO)N1C[C@H](C)[C@H](CN(C)Cc2ccc(-c3ccccc3)cc2)Oc2ccc(NC(=O)c3ccncc3)cc2C1=O`, the cytotoxicity call with HSkMC and with HepG2 was “inactive” in each case. Moreover, the growth inhibition call in the test on S. aureus RN4220 was “inactive”.

Consider `Cc1c2occ(C(C)(C)C)c2cc2c3c(c(=O)oc12)CCCC3`, for which the cytotoxicity call with HSkMC and in the test with HepG2 was “inactive” in each case. The growth inhibition call in the test on S. aureus RN4220 is “inactive”.

With `C[C@@H]1CCCCO[C@H](CN(C)Cc2ccc(C(=O)O)cc2)[C@H](C)CN([C@H](C)CO)C(=O)c2cc(NC(=O)C3CCCCC3)ccc2O1`, the cytotoxicity call in the test with HSkMC and in the test with HepG2 was “inactive” each time. Moreover, the growth inhibition call in the test on S. aureus RN4220 was “inactive”.

With `CC(C)NC(=O)N(C)C[C@@H]1Oc2ccc(NC(=O)NC3CCCCC3)cc2C(=O)N([C@@H](C)CO)C[C@H]1C`, the cytotoxicity call in the test with HSkMC and in the test with HepG2 was “inactive” in each case. The growth inhibition call with S. aureus RN4220 is “inactive”.

As to `C[C@@H]1CN([C@@H](C)CO)C(=O)c2cc(NS(=O)(=O)c3cn(C)cn3)ccc2O[C@@H](C)CCCCO[C@@H]1CN(C)S(=O)(=O)c1cn(C)cn1`, the cytotoxicity call in the test on HSkMC and with HepG2 was “inactive” throughout. Besides, the growth inhibition call in the test with S. aureus RN4220 is “inactive”.

`CCCN1C[C@H](C)[C@@H](OC)CN(C)C(=O)c2ccc(NS(=O)(=O)c3cn(C)cn3)cc2OC[C@H]1C`: the cytotoxicity call with HSkMC and in the test on HepG2 was “inactive” throughout. For the same compound, the growth inhibition call in the test on S. aureus RN4220 was “inactive”.

Turning to `C[C@H](N)CCC(=O)NCS(=O)(=O)O`, the cytotoxicity call with HSkMC and with HepG2 was “inactive” throughout. In addition, the growth inhibition call in the test with S. aureus RN4220 was “inactive”.

As to `C[C@@H]1CCCCO[C@H](CN(C)C(=O)Nc2ccc3c(c2)OCO3)[C@@H](C)CN([C@H](C)CO)C(=O)c2cc(NC(=O)Nc3ccccc3)ccc2O1`, the cytotoxicity call in the test with HSkMC and with HepG2 was “inactive” throughout. Besides, in the test on S. aureus RN4220, the growth inhibition call was “inactive”.

Turning to `Cn1c(=O)[nH]c(=O)c2[nH]cnc21`, the cytotoxicity call in the test on HSkMC and in the test on HepG2 was “inactive” throughout. Also, in the test with S. aureus RN4220, the growth inhibition call was “inactive”.

With `O=C(O)c1ccc(N2CCCS2(=O)=O)cc1`, the cytotoxicity call in the test on HSkMC (human skeletal muscle cells) and in the test with HepG2 was “inactive” throughout. Also, the growth inhibition call in the test with S. aureus RN4220 is “inactive”.

In the case of `COCCc1nc2c([nH]1)c(=O)n(C)c(=O)n2C`, the cytotoxicity call in the test with HSkMC and in the test on HepG2 was “inactive” in each case. The growth inhibition call with S. aureus RN4220 is “inactive”.

In the case of `CO[C@@H]1CN(C)C(=O)c2cc(NC(=O)NC3CCCCC3)ccc2OC[C@@H](C)N(CCc2ccccc2)C[C@H]1C`, the cytotoxicity call in the test with HSkMC was “inactive”. Besides, in the test with HepG2, the cytotoxicity call was “active”. Moreover, the growth inhibition call with S. aureus RN4220 was “inactive”.
